# The source gives no read counts; variants with many changes may rest on few reads.
# B1: LINE1-full (parent)
# chain: UACGUAGGUGGUUUUCCCCUGAUAGUGCUAAGGGGGCCUGGAAGUUUGGACUGGGCAGAGCUCAACACAGCGUGGCAAAGUGGCUGUGGCUAGACUGCCUCUCUGGAUUCCUCGUCACUCAGCAGGGCAUCUCUGAGAGAAAUGCC
# Variants of: B1
# Assay: self-cleavage, relative activity (ratio to wild type); higher = more cleavage; in vitro, sequencing; the parent is a self-cleaving ribozyme
row,Variant,self-cleavage
1,U9C A31G G33A C37U A57U,0.22
2,U14C U15C A57U A140G,0.23
3,U96C U102A U109C,0.14
4,G8A A77U U100C,0.78
5,G83C U130C U143C,1.52
6,U87G U119C A136G A140G,1.15
7,A57G A69U A136U,0.08
8,U9C A117C A136C,2.4
9,A57U A59G U132G,0
10,U23C U39A A59G A67C A142G,0.14
11,U9C U15C A77G U96C,1.41
12,G4U G32U U46A U87G,0.32
13,U9A U12A U46C A67G A94U,0.48
14,A6G G86A U119A,0.12
15,C37G A50C U81A A141G,1.52
16,A6G U12C G80A,1.29
17,U15C C90U A124G,0.05
18,G4U U12C A79G U119C A140G,2.63
19,U47A A65G U119C U130A,0.06
20,A77U U102A A121G,1.7
21,U20C A121G C133A,1.85
22,U29A A43G A64G U87A U119C,0.7
23,A43U U100C C110U,1.78
24,A2G A24U A65G A117U A129G,0.33

row,Variant,self-cleavage
1,U102C A124G U134C,2.12
2,A31G U45C U52C U73A,1.84
3,U62C A78C U134G,0.08
4,U87C U132C A141G,0.29
5,A69G U115C A129G,0.84
6,G7C U13A A64U U119A,0.39
7,U14C U23A U45C,1.89
8,A24G A59G C76U U104C,0.11
9,A67G A94G A141G,0.48
10,U1A U39A U73A A78G,1.53
11,U1C C37U U47A G60A U104C,0
12,A30G U91C A94U C98A G125A A140G,0.04
13,C51U U52C A64U,0.54
14,U12A U85A C131U,0.21
15,U13C A78G U96C,0
16,G70U U85C A129G U130C,0
17,U12C U102A A124U,2.1
18,A42U U100A U134A,0.47
19,A30G U100C A136G U143C,1.84
20,U52C A117U U132G A138G,0.51
21,U14C U87A U109A U130C,0.07
22,U13C A22G G74A U119C,0.79
23,U12C A57G U62C A124G,0.11
24,A6G U14C U26A U96A,0.08

row,Variant,self-cleavage
1,U5G U14C U130C,0.69
2,U13C A42G A94U,0.37
3,U20A U29C A65G A138G,0
4,G35A G60C A77U U100C,0.03
5,U5A U12G U14C U45A U112C,0.88
6,U14C A117G U143C,2.4
7,A24G U45C G83A U108C,0.51
8,U85C U96C U115A,0.06
9,C63A A78G A107C A117U,0.11
10,U12A A117G A141G,1.89
11,U47C A138G A140G,0.57
12,U47C U62C U102C,0
13,U15C U115A A142G,1.57
14,U14C A64G U130A,0.21
15,U15C A65U U143A,0.32
16,A30G U45C A142U,1.21
17,U1C U46C U81G,0.55
18,U102C A107G U112C,0
19,U14C U23C G32A U132C A136U,0.45
20,A30U G49U U62C U87A,0.06
21,U23C A57G U62A U132A,0
22,C90G U108C C123U,0.03
23,U23C G58U A78G U115G,0
24,U12C U26A A31U A138G,0.99

row,Variant,self-cleavage
1,G7U A65U G86U U87C A141G,0.04
2,C28G G35A U87C U112C A117U,0.13
3,A24G U62C A107G,0
4,U29C A30U A138G,0.55
5,U47C A77G A124U,0
6,A69G U109A G135U,0.24
7,A22G A57G C68U U132G,0.37
8,A57U G89U U130C G137U,0.03
9,C76U U96C U119C U134A,0.13
10,U29C A50G A141G,1.61
11,U15C A57G G125U,0.95
12,A50G A107U U134C,0.64
13,U45C U52C U96A U100C A142G,0
14,A6G G8A U46A,0.85
15,A42U C56U U100C,0.21
16,G10A U23C C68U A94G A121G,0.05
17,G58A U104C U108C,0.05
18,U13C U47A U52C A129U,0.88
19,A2G U12A A31G G34C U87A,0.35
20,U26C U45C U132C,0.57
21,A2G U20A A92U,0.78
22,U5A U9C C28A U132A,0.91
23,U13C U29C A30G U85C,0
24,U12C U47C U85A U130C A142G,0

row,Variant,self-cleavage
1,A64U U100C U132C,0.69
2,U46C G106A U119A,1.77
3,C90U U96C A124C,0.06
4,G25C C71G A92G A129G A142G,0.1
5,A50G U52C A67U,0.14
6,U12G U14C U23A U39A A65G A69G A142G,0
7,U15C U29C A31G U39C A140U,2.04
8,A30G A31C U39C A138U A140G,0.48
9,U23A A50U U81C U132A,1.25
10,U62C U112C A138G,0.11
11,U46C U73G U112A A136U A142G,1.99
12,G32A U45A U143C,1.83
13,U26C U96C C120U,0.09
14,A2G U29A A43G U115G G122A,0.69
15,U9C U13C U26A A43U A57U A65G U134C,0
16,A2G A22G U45A A117U,0.99
17,G32C A94C A129G,0
18,G33A U134A A141G,0.99
19,U12C C18U U52C A59G A64G C71U C131G,0.38
20,U39A A140G A142G,0.33
21,A2G U45C U47C G127A A138G,2.21
22,G60C A92G U96C A107G C128A,0.12
23,A65G U104C G126A,0.1
24,U12C U46C U115C,2.04

row,Variant,self-cleavage
1,U9A U12G A79G,0.52
2,U5C U102C A141G,1.5
3,U5C U96C U134C,0
4,G105U C123U A142G,1.21
5,G86A U109C A141G,0.09
6,G25A A92C U104G,0
7,U14G U102A A129G,1
8,A50U G53A A77U,0.35
9,U14C U73A G75U C98U U100C U104C,1.39
10,A22G U108C A121U,1.09
11,U39A C71U C145U,0.96
12,A2G U15C U23A,1.53
13,U12C U130A A141G,1.23
14,U12G U13C U15C A94G,0.51
15,U9C U39C A57G A138G,0.63
16,A42G U47C A129G,0
17,A69U U100A U115C,0
18,U12G C18A U29C,0.95
19,A77G A78G A136G,2.76
20,U1C U12G A124U,0.53
21,U9A A22G A24U A57G,0.27
22,A6G A50U U81A,1.3
23,G32A U73C U81A,2.53
24,U5C A67G A121G,1.15

row,Variant,self-cleavage
1,C76G U104C A124G,0.56
2,G32U A42G A69U A141G,0.12
3,U9A U85A A140G,0.11
4,U47C A69U U132A,0.01
5,A57U U87C U115A,0.09
6,U14C A67U U130C,0.2
7,G8A U12C U14C A50U,0.63
8,A22U A57C U109C A124G,0
9,U87C A107U A140G,0.36
10,U5C G55A U119C,0.65
11,A67U U102C A140G,0.42
12,U12C U87A C133U A136G,0.09
13,G35C G83A G106A A124G,0.31
14,U9C A50G A79G U143A,0.99
15,U14C U62C A129G,0.07
16,U13A A22U U108C U132C,1.22
17,A2G U13C U29C U73A A78G C128U,0.7
18,U12C A69G A121U,0.71
19,U14C A78G U112A,0.64
20,U12G U13C A140G,0.48
21,A6G U15C A69G U143C,0.61
22,A2G U12G U15C A94U A121G,0.84
23,U5C A24G U104C,1.31

# Source: the RNAGym collection of RNA variant scans (doi:10.7554/elife.90254)
